This note sets out measurements from ChEMBL document CHEMBL4888484, “Replenishing the malaria drug discovery pipeline: Screening and hit evaluation of the MMV Hit Generation Library 1 (HGL1) against asexual blood stage Plasmodium falciparum ,using a nano luciferase reporter read-out” (2022).

Structures are written as SMILES. About 540 (0.36%) of roughly 150,000 compounds showed an effect of 50% or more. This is one part of the list.

By % Inhibition is commonly meant the drop in the measured response relative to a control, in per cent.

In this assay the test system is Plasmodium falciparum. Briefly: Primary screen in NF54 nanoGlo assay, in single point, at 2uM, 72h; a lower Z score goes with more inhibition. To be noted: timepoint 72 hour. It is filed as functional, Erythrocyte.
Take `CC(C)(N)C(=O)Nc1cc(CCc2ccccc2)[nH]n1`: the “% Inhibition” value is -3% and the Z score was 0.45.

For `CC1(C)COc2cc(-c3cccnc3)ccc21`, the “% Inhibition” value is reported as -5% and the Z score is on record as 0.92.

In the case of `O=C(NCc1ccccc1C(F)(F)F)c1nnn(-c2ccccc2F)c1-c1cccnc1`, the “% Inhibition” value is on record as -3% and the Z score worked out at 0.39.

Regarding `CC(C)(C)NC(=O)C1CCCCN1C(=O)C1CCCO1` (stereo not drawn), the “% Inhibition” value is recorded as -1% and the Z score is on record as 0.1.

With `CC[C@H](C)S(=O)(=O)NC(=O)c1cnn(C)c1C`, the “% Inhibition” value was -13% and the Z score worked out at 1.68.

Take `O=C(NCc1ccccc1F)[C@H]1CCCN(C2CCN(Cc3cccnc3)CC2)C1`: the “% Inhibition” value was found to be 5% and the Z score was -0.72.

Regarding `COC(=O)CCC(C)(C)NC(=O)c1ccnc(C)n1`, the “% Inhibition” value is -3% and the Z score was 0.37.

Take `CC(C)[C@H]1CCCN(Cc2cccc(OCc3ccc(F)cc3F)c2)CC1`: the “% Inhibition” value is given as -18% and the Z score was 1.98.

In the case of `CN(C)CCN(CCc1ccccc1)c1ccc(C(=O)Nc2ccccc2)nn1`, the “% Inhibition” value is on record as 1% and the Z score is recorded as -0.12.

Turning to `Cn1cccc1C(=O)CN1CCN(S(C)(=O)=O)c2ccccc2C1`, the “% Inhibition” value was -4% and the Z score came to 0.56.

Regarding `CC(C)C(=O)N(Cc1ccccc1OS(=O)(=O)c1ccc(F)cc1)C[C@H]1CCCO1`, the “% Inhibition” value is -4% and the Z score worked out at 0.43.

As to `COc1ccsc1S(=O)(=O)N(C)Cc1cn(C)nc1C(F)(F)F`, the “% Inhibition” value was -2% and the Z score is 0.31.

With `c1ccc2c(c1)c1c(n2Cc2ccncc2)CCCNC1`, the “% Inhibition” value is listed as -4% and the Z score is 0.59.

As for `CN(C(=O)c1ccco1)[C@@H](Cc1ccc(F)cc1F)C1CCN(Cc2ccc3c(c2)CCO3)CC1`, the “% Inhibition” value was -13% and the Z score is 1.81.

Take `COc1ccc(CN(CC(C)C)C(=O)NC(C)C)cc1OS(=O)(=O)C(C)C`: the “% Inhibition” value was -21% and the Z score came out at 2.02.

Take `Cc1cc(CN(C)c2ncc(F)cn2)no1`: the “% Inhibition” value was -2% and the Z score is listed as 0.18.

As to `Cc1nc(N)sc1-c1ccn(Cc2ccncc2)n1`, the “% Inhibition” value is given as -18% and the Z score stood at 2.26.

Regarding `CN(Cc1nccn1C)C(=O)c1cnnn1-c1ccccc1`, the “% Inhibition” value came to 12% and the Z score is recorded as -1.64.

Take `Nc1ccc2nc(CCc3nc4ccc(N)cc4s3)sc2c1`: the “% Inhibition” value is listed as -10% and the Z score is 1.37.

Regarding `CO[C@H]1C[C@H]2CN(C(=O)c3n[nH]c4ccccc34)CC(=O)N2C1`, the “% Inhibition” value was -1% and the Z score is given as 0.11.

As for `O=C(O)c1cccc(Cn2cnc3c2CCCC3)c1`, the “% Inhibition” value was -8% and the Z score is given as 0.76.

For `CCCC1(CCC)NC(=O)N(CC(=O)Nc2nc(-c3cccc4ccccc34)cs2)C1=O`, the “% Inhibition” value is -7% and the Z score was determined as 0.94.

On to `O=C1CC[C@]2(CCCN(c3ccncc3F)C2)CN1C1CCCC1`, for which the “% Inhibition” value turned out to be 0% and the Z score was 0.02.

Take `COc1ccc(-n2ncc3c2CC(C)(C)C[C@@H]3NC(=O)C2CCN(C(C)=O)CC2)cc1`: the “% Inhibition” value was -18% and the Z score is 1.56.

As for `COc1ccc(-c2noc(CCN(C(=O)C3CCC3)[C@@H](C)c3ccccc3)n2)cc1OC`, the “% Inhibition” value is recorded as -11% and the Z score is given as 1.49.

Take `Cc1nn(-c2cc(N(S(C)(=O)=O)S(C)(=O)=O)c(Cl)cc2Cl)c(=O)n1C`: the “% Inhibition” value is on record as -3% and the Z score was found to be 0.4.

Turning to `CC(C)C(=O)N1CCN(C(=O)c2ccc3ccccc3c2)[C@H]2CS(=O)(=O)C[C@H]21`, the “% Inhibition” value was -4% and the Z score was found to be 0.72.

For the molecule `O=C1C2CC=CCC2C(=O)N1CC1CCCO1` (stereo not drawn), the “% Inhibition” value is given as -16% and the Z score is given as 2.08.

Consider `Cc1c(-c2nnc(C(=O)N3CCCCCC3)o2)oc2c(C)cccc12`, for which the “% Inhibition” value turned out to be 17% and the Z score is recorded as -2.

In the case of `c1nc(NCC(C2CCOC2)N2CCCC2)c2ccsc2n1` (stereo not drawn), the “% Inhibition” value is given as -1% and the Z score is 0.1.

With `CCc1cccc(NC(=O)CN2CC[C@H](n3cc(C)cn3)C2)c1`, the “% Inhibition” value is listed as 5% and the Z score is on record as -0.59.

On to `Cn1cc(CN2C[C@@H]3C[C@H](C2)c2ccc(NC(=O)c4ccc(C#N)cc4)c(=O)n2C3)c2ccccc21`, for which the “% Inhibition” value turned out to be 13% and the Z score is -1.56.

Turning to `O=C(c1ccc2c(n1)CCCC2)N(Cc1ccco1)C[C@H]1CCCO1`, the “% Inhibition” value is -1% and the Z score worked out at 0.2.

For `CC(C)(C)c1ncc(C=Cc2cnc(C(=O)O)cn2)s1`, the “% Inhibition” value is given as -1% and the Z score was determined as 0.09.

`O=C(Oc1ccc(Cl)cc1)c1cnsn1`: the “% Inhibition” value is -2% and the Z score stood at 0.27.

`CC1CCCC(C)C1NC(=O)Nc1nncc(-c2ccccc2)n1` (stereo not drawn): the “% Inhibition” value came to 4% and the Z score is given as -0.65.

For `Cc1cc(N2CCCC2)ccc1-c1nc2cnccn2c1NCc1ccco1`, the “% Inhibition” value is -7% and the Z score amounted to 1.32.

For `Cc1cccc2nc(CN3C[C@H](F)C[C@H]3C(N)=O)cn12`, the “% Inhibition” value is -13% and the Z score is listed as 1.82.

As to `C[C@H](NC(=O)c1ccc2c(c1)OCCO2)c1nnc(N)s1`, the “% Inhibition” value came to 9% and the Z score was -0.96.

On to `COC(=O)C1(CNCc2cscn2)CCCCC1`, for which the “% Inhibition” value is recorded as -15% and the Z score worked out at 1.71.

For the molecule `Cc1ccc(CC(=O)N2CC(O)(c3ccc(F)cc3)C2)cn1`, the “% Inhibition” value is -10% and the Z score worked out at 1.15.

With `Cc1nc(N2CCC3(CC2)COC(=O)O3)c2ccsc2n1`, the “% Inhibition” value is given as -7% and the Z score stood at 1.39.

In the case of `CC(C)Oc1cc(-c2ccnn2C(C)C)nc(N)n1`, the “% Inhibition” value is on record as -5% and the Z score was found to be 0.61.

Turning to `CCCc1cc(N2CCN(C(=O)c3ccc4cc[nH]c4c3)CC2)nc2nnc(CC)n12`, the “% Inhibition” value was -1% and the Z score is listed as 0.09.

On to `CC1(C)C[C@H](c2ccccc2)CN1C(=O)c1coc(CO)c1`, for which the “% Inhibition” value is reported as 7% and the Z score is reported as -0.85.

In the case of `N#Cc1cnc(-c2ccc3c(c2)OCO3)nc1N`, the “% Inhibition” value is recorded as 5% and the Z score is -0.88.

Consider `Cc1nc2ncccc2cc1C(=O)N1CCC2(CCNC(=O)CC2)CC1`, for which the “% Inhibition” value is given as -8% and the Z score was determined as 1.09.

On to `CCc1nccc(-c2nccn2CCOc2ccccc2F)n1`, for which the “% Inhibition” value is on record as -5% and the Z score worked out at 0.87.

With `O=C(Cc1c(F)cccc1Cl)Nc1nc(-c2ccccc2)cs1`, the “% Inhibition” value is given as -3% and the Z score came out at 0.48.

For the molecule `CC[C@H](NS(=O)(=O)N1CCCC1)c1cc(C)ccn1`, the “% Inhibition” value is -2% and the Z score is reported as 0.35.

As to `Cc1noc(-c2nn(C)c3c2CN(C(=O)Nc2ccccc2C(F)(F)F)CC3)n1`, the “% Inhibition” value stood at 4% and the Z score was -0.6.

Regarding `Cc1ccc(-c2ccc(C(=O)NCCN3CCC[C@H](C(N)=O)C3)cc2)cc1F`, the “% Inhibition” value worked out at 1% and the Z score was -0.21.

In the case of `CCN(Cc1nccn1Cc1cccc(OC)c1)S(=O)(=O)c1ccc(OC)cc1`, the “% Inhibition” value is reported as -4% and the Z score is listed as 0.84.

For the molecule `O=C(NC[C@H]1Cc2ccccc2O1)c1ccc(-c2ccco2)[nH]c1=O`, the “% Inhibition” value is -8% and the Z score came to 1.31.
